In the supplement of paper PMC11417369:
Some of the results follow.

tested on: PfHDP1 homeodomain (GST-tagged); assay: gcPBM binding intensity (ln(normalized median fluorescence intensity)); higher = stronger DNA binding
Summary of the method: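 In this array assay, P. falciparum DNA-binding domains with a GST tag, expressed in E. coli, were applied for 1 h to primer-extended double-stranded 36-bp intergenic genomic probes and negative controls on an Agilent 4 × 180k array. Bound protein was visualised with Alexa488 anti-GST antibody at 488 nm. Binding intensity is the highest Masliner-normalised natural-log median intensity across replicate spots of either probe orientation.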

Row | Sequence | gcPBM binding intensity (ln)
1 | TATAAATATGTATATGCATGTGGAATATATAATTAA [TGCATGCA_site226] | 6.76
2 | AAATAAAACAGACACACACACACATACACAAAAAAA [CACACA_site7753] | 6.85
3 | TGTCACCTATTTTTTTGTACGTATGTCCATTTTTTT [XGTACX_site4368] | 6.62
4 | ATTACAACCACATTGACATGCAAATGTAGAGGGGGA [TGCATGCA_site694] | 7.57
5 | TTTATTTTTAACAGTGCACACATAACTTAATTATAT [CACACA_site8681] | 9.52
6 | TATACAGATGGACACACACACATAAATAAATATATA [CACACA_site4863] | 6.8
7 | TACTATAACCCACATACACACAAAAAAAAAAAAAAA [CACACA_site4454] | 6.41
8 | TGGTTTATTTATTAAGTGCATAAATGCAATATATAT | 9.94
9 | TATTATATATTTAATAGTACATATAAAATAATAAGG [XGTACX_site4823] | 6.45
10 | TATATATAGAAACACACACACATATATATATATATT [CACACA_site4115] | 6.81
11 | CATAAAATTGTATTTTGTACACATTTTGTATACATT [XGTACX_site5705] | 6.07
12 | ATTTACATAAACGTCTGTACTAATATACAATTTTCT [XGTACX_site1700] | 6.34
13 | AAAAAAAAAGAGGCGTGTACATATATAATTTAAATT [XGTACX_site6827] | 7.02
14 | ATAATAGAAACAAACAGTACACATACCTAAAAGGAA [XGTACX_site8647] | 6.41
15 | TTATTAAAGTATAACTGTACATGCGAGTAAAAGAAT [XGTACX_site7388] | 7.58
16 | TGTTCTAATATTTGTTGTACATTTACATTTCTCTCT [XGTACX_site2585] | 6.84
17 | TATTTTATTTCAAATCTTAATAATTGTAATTCTTCA [XGTACX_negctrl_site442] | 5.93
18 | ATTTTTAAAATAAATACATGCATATATTTATATGTT [TGCATGCA_site394] | 6.41
19 | TTTTAATTAGAAATCATACACACATATATATATATA [CACACA_site174] | 9.11
20 | TGTGTAATACATAATACACACATGTATATGTCGCAT [CACACA_site4757] | 6.84
21 | TTTTTTTTTGTTATGTTGCACTTTGCCATATTATTA [GTGCAC_site9844] | 7.35
22 | TTTCAAATGATTAAGTGTACATGTTTGCTTGCTCTT [XGTACX_site4697] | 6.8
23 | AACAATATATTGATATTATTTTAAGTGATTATATAT [XGTACX_negctrl_site205] | 6.04

Row | Sequence | gcPBM binding intensity (ln)
24 | TATAAAAAAATAAAAGGAATATACTTGCAAAGGGTA [CACACA_negctrl_site1438] | 8.14
25 | AATAATAAAAAAAGTGCACACACATAATATATATAT [CACACA_site9100] | 8.79
26 | ATGTATATATATATATGTACATATTTTTTATATGTA [XGTACX_site441] | 6.23
27 | TTTAAAATAAATTAATAGAACAAAAATAAAATGATT [GTGCAC_negctrl_site375] | 6.55
28 | TTCTTTTTTTAAAGAAGTACTATATTTTAAATTATA [XGTACX_site5059] | 5.8
29 | AAAAAAAATACAAAAAGTACAAAAAATACAAAAAAA [XGTACX_site8844] | 6.19
30 | AATTTTATTACTTTTACACACCTATATATCATTCAT [CACACA_site7525] | 6.91
31 | ACCTTAAATAATACATGTACAAAAAAATTTATAATA [XGTACX_site1043] | 7.66
32 | TAGGGATTATACCACACACACATACACATAAATATA [CACACA_site3178] | 6.9
33 | AAGAATAAGGAAAAATGTACAGAATGCACATATGAA [XGTACX_site4705] | 9.28
34 | TAGTTTTGAAAACAAACACACAAAAAAAAAAAAAAA [CACACA_site1692] | 6.13
35 | TACATATTACTATTCAGTACATATTTTTTTTTCATT [XGTACX_site7468] | 6.31
36 | AGGATAAAAGTTATGGTGCATTAACCTATTTAAATA | 10.1
37 | TATATAGGTATATATACACACAACGGTTATAAATAT [CACACA_site4759] | 6.68
38 | TATAAAGACACGAAAACACACATATGTAAATATATA [CACACA_site8056] | 7.13
39 | TTTGAGTTACTATTCACACAAAATGGATAAATTAAT [CACACA_site5626] | 6.38
40 | CACATAAATAATTAAACACACATTGTTCTAGACAAT [CACACA_site2378] | 6.51
41 | ATGTAAGTAATTATCTGTACACATAATATATATATA [XGTACX_site2618] | 8.56
42 | AATATAAAAAATAATACACACACATGGCGACAAAAT [CACACA_site8765] | 7.31
43 | TATTAATCCTTTTGCTTGGAAACATTCAAAAGGAAG [CACACA_negctrl_site1129] | 5.99
44 | AAAATAAACCCAGACACACTCATTAAAAAATATCAT [CACACA_site5903] | 6.49
45 | ATAAATAAATACTAGGCACACACACCGATATATATA [CACACA_site8649] | 7.07
46 | ATATATATAAAATATGGTACAGAAAAAGTCTTGTTT [XGTACX_site8868] | 7.07

Row | Sequence | gcPBM binding intensity (ln)
47 | TTCTGTCAATATGCTTGTACGAAATATTTCGTAATT [XGTACX_site3182] | 6.7
48 | AAACCGTGGGAGCACACACACACACCCACCCATATA [CACACA_site332] | 6.6
49 | ATAATAACAAAATATTAACACACATAACATATTATA [CACACA_site8906] | 6.41
50 | ACAAAACAAAACAAAAGTACACAAAATAAATAAGAT [XGTACX_site6497] | 7.06
51 | AATCCTTAAAATTAACGTACGAAATGAATTTATTAA [XGTACX_site956] | 6.23
52 | TGGAGGTCATTACACAGTACCCAGGAAATCTACGGA [XGTACX_site2004] | 6.21
53 | AAAGATATAAATTACTGTACTAATGAAATTGGTAAA [XGTACX_site3582] | 6.14
54 | TTAAATAATGCCACCAGTACCCACTGAAAGAAAAAA [XGTACX_site5013] | 6.25
55 | CAATTGATATTGAAATGTACTTTTTAGATGAACCTT [XGTACX_site2354] | 6.17
56 | TATATTAAAATTTACTGTACTTTTTTTATTTTAAAA [XGTACX_site4077] | 6.17
57 | ATGTATATATTCAATTGTACATGTTATATTTACACA [XGTACX_site1125] | 6.5
58 | ATTGTATTAAAATGCACACATATCAAGAGGAATTTT [CACACA_site283] | 9.8
59 | AAAGAATAATTAAATACACACATATTGCAGTAAAAA [CACACA_site7201] | 6.89
60 | ATATTAAAATTTTAATGTACATGCGTATGTAGGAAT [XGTACX_site1673] | 7.44
61 | TATATTATATTTTTATGTACTTATTTATTTTGTTTC [XGTACX_site6145] | 6.44
62 | AACATATATTTTTAATGTACAAGGTTGTAAAGAACT [XGTACX_site1405] | 6.68
63 | ATAAAGCACACCGACACACACATATATATATATATA [CACACA_site1047] | 9.37
64 | CAAAAAAAAAAACGGGTGCTAAATTTTATTTTTTAT | 6.73
65 | AAAAAAAAAATATATATATATATATATATATATATA [GTGCAC_negctrl_site467] | 9.4
66 | TATCATGGTTCGGATTGTACATATATGAATTTTTTT [XGTACX_site7478] | 6.46
67 | TTCTTTTAAAAATATATTTTAAGAAAATTTAATTTA [GTGCAC_negctrl_site237] | 6.09
68 | GGATAAGAAAAGAAGTGTACATATATATATATATAT [XGTACX_site8290] | 9.37
69 | TTTATTTTTTGAAACACACACAAAAAAAATGATACA [CACACA_site1881] | 6.81

Row | Sequence | gcPBM binding intensity (ln)
70 | AAAAAAGAAATAAGGATACACACTATTGATAAAAGT [CACACA_site272] | 6.67
71 | CCAGTGTGCACCTTGCGTACATATTAAATTAATTAA [XGTACX_site3729] | 10.4
72 | TTTTTTAAATTTAAAGTGCATTATTATATATTTGTA | 8.5
73 | GGATATATAAGATACACACACAAATTAAATATAAAA [CACACA_site7333] | 6.81
74 | TAATATATAAATATATGTACATAATTAATAGGATAT [XGTACX_site237] | 6.87
75 | TATTCCTAATTTAAAAGTACATATATATATATATAT [XGTACX_site3008] | 9.24
76 | TTGTTTCAAAATTAAACACACACAAAAAAAAAAAAA [CACACA_site8856] | 6.03
77 | CTTATAATATTACGGGTGCTATAAATACATTATATT | 6.67
78 | TAAATCAAAAACAACAAGTCATATTAAAGATGGTAT [CACACA_negctrl_site1321] | 6.68
79 | TATATTTATATCATCACACATTTTTTTTTTCTTTTT [CACACA_site6150] | 6.23
80 | AAGGAAAACAGTAGGTGTACCAAACGTCCTAGGAAC [XGTACX_site3659] | 6.46
81 | AAAAAAAAAAAAAAGAGTACTTTTTTCACATTCATC [XGTACX_site8795] | 6.35
82 | AATATATGTTAAAATGGTACACAATTATTATATATT [XGTACX_site6407] | 6.42
83 | TAAAATGAATAAAATTGTACTTAATAATATTTTAAA [XGTACX_site5532] | 6.03
84 | TTTTCTTTTTTCTTTTTAACTCTTACATAATAGGTG [CACACA_negctrl_site642] | 6.27
85 | AAAAAAAAAAAAATTACACACATACCTATAAGAATA [CACACA_site7097] | 6.46
86 | TCAAAATGTGACATAAAAGAAAAAAAAAAAAAAAAA [CACACA_negctrl_site1092] | 6.22
87 | AAAATGTATATTGGCGCATGTAAACAAATACTATAC [TGCATGCA_site385] | 7
88 | GATAATAATAAGTGTACACATATATTTAGAAGAGTA [CACACA_site4245] | 7.19
89 | TGGGGTATTAAAAAAACACACAAAAAAAATATAAAG [CACACA_site1915] | 6.48
90 | TTTTTTTTTCTGTATACACACAAAATTTATTTTTTA [CACACA_site2873] | 6.68
